# In PubChem BioAssay AID463173 (ICCB-Longwood Screening Facility, Harvard Medical School, 2010):
# The campaign covered roughly 52,000 compounds. About 4,300 (8.3%) were called active. Cut-off read from the data, not from the text of the source: active = survival mostly below about 52% (no sharp cut-off); inactive = mostly above about 56%. The list shows a part of the results.
# Tested on: DeltatarO mutant
# Experiment: growth inhibition of S. aureus wild type versus tarO mutant, primary screen, teichoic acid synthesis inhibitors, RN4220, OD600 (AID 463173)
# Details: OD600, 18 h, stronger effect = lower value, screened at 18.75 µg/mL (by protocol)
row,Compound,survival
1,COc1cccc2c1cc1c(=O)n(CC(=O)NCc3ccco3)nc(C)n12,inactive: 88%
2,Cc1ccc(CCNC(=O)CN(c2ccc(C)cc2)S(=O)(=O)N(C)C)cc1,inactive: 78%
3,CC(C)OCc1cc(CN2CCN(c3cccc(C(F)(F)F)c3)CC2)c(O)c2ncccc12,inactive: 52%
4,Cc1c(Cl)cccc1NC(=O)CSc1nc(=O)n(Cc2ccco2)c2c1CCC2,inactive: 98%
5,CCCCN(C)C(=O)CSc1nc2ccccc2nc1Cc1ccc(C)cc1,active: 32%
6,CCN(Cc1ccccc1)Cc1nnnn1CCOC,inactive: 71%
7,Cc1ccc2[nH]c(=O)c3cc(C(=O)NC4CCC(C)CC4)sc3c2c1 (stereo not drawn),inactive: 56%
8,CCOc1ccc(NC(=O)c2cc(S(=O)(=O)N3CCN(c4ccccc4F)CC3)ccc2F)cc1,inactive: 69%
9,COc1ccccc1CNC(=O)C(=O)NCC(c1cccs1)S(=O)(=O)c1cccs1 (stereo not drawn),inactive: 90%
10,CCSc1nnc2n(-c3ccccc3)c(=O)c3c4c(sc3n12)CCCC4,inactive: 95%
11,CCOc1ccc(Nc2c(S(=O)(=O)c3ccc(C)cc3)cnc3ccc(F)cc23)cc1,inactive: 64%
12,Cc1ccc2oc(C(=O)N(Cc3sccc3C)C3CCS(=O)(=O)C3)c(C)c2c1 (stereo not drawn),inactive: 65%
13,COc1ccc(-n2c(=O)c3c4c(sc3n(C)c2=O)CN(C(C)=O)CC4)cc1,inactive: 86%
14,O=c1cc(-c2ccccc2)n2c(SCc3ccccc3Cl)nnc2[nH]1,inactive: 95%
15,O=C1C(=O)N(C2CCN(C(=O)c3ccccc3F)CC2)CCN1Cc1ccc(F)cc1,inactive: 67%
16,CCCCC1(C(=O)OC)NC(c2ccc(O)cc2)C2C(=O)N(c3ccccc3)C(=O)C21 (stereo not drawn),inactive: 83%
17,COc1ccc(Cl)cc1NC(=O)CSc1ccc2nnc(CCNS(=O)(=O)c3ccccc3)n2n1,inactive: 53%
18,Cc1ccc(-c2noc(CSc3nnc(C)n3-c3ccc(C)c(C)c3)n2)cc1,inactive: 75%
19,Cc1cc(OCC(=O)N/N=C/c2ccc(I)o2)cc(C)c1Cl,inactive: 75%
20,CCCCCNC(=O)C1CCC(Cn2c(=O)c3sccc3n(CC(=O)NCc3cccc(OC)c3OC)c2=O)CC1 (stereo not drawn),inactive: 81%

row,Compound,survival
1,CN(C)c1ccc(CNC(=O)C2CCN(Cc3cc4ccccc4n3Cc3ccccc3)CC2)cc1,inactive: 94%
2,Cc1sc2ccccc2[n+]1CCCO,inactive: 76%
3,Cc1cccc(N(C)S(=O)(=O)c2cc3[nH]c(=O)c(=O)[nH]c3cc2C)c1,inactive: 88%
4,CCc1ccc(NC(=O)C2=CC(c3cccs3)=NS(=O)(=O)N2C)cc1,inactive: 81%
5,COc1cc(NS(=O)(=O)c2c(C)nc3sc(C)c(C)n3c2=O)cc(OC)c1,inactive: 71%
6,COc1ccc(C(=O)NCc2ccc3c(c2)CCN3C(=O)c2ccc(F)cc2)cc1,inactive: 83%
7,COc1ccc(C)c2sc(NC(=O)c3ccc(S(=O)(=O)N4CCCC4)cc3)nc12,inactive: 101%
8,COc1ccccc1CNC(=O)COCc1cc(-c2ccc3c(c2)OCO3)on1,active: 25%
9,COc1ccc(/C=C(\C#N)c2nc3ccccc3c(=O)[nH]2)cc1OC,inactive: 86%
10,O=C(COc1ccc(F)cc1)OCc1cc(=O)n2nc(-c3cccs3)sc2n1,inactive: 72%
11,CC(C)CN(CC(C)C)CC(O)Cn1cc(/C=C/C(=O)c2ccccc2)c2ccccc21 (stereo not drawn),active: 38%
12,COc1cccc(CNS(=O)(=O)c2c(C(=O)N3CCC(C)CC3)c(C)n(C)c2C)c1,inactive: 96%
13,COc1ccc(C(=O)C2CCN(CC(=O)NCc3ccc(F)cc3)CC2)cc1,inactive: 83%
14,O=C(NC1CCCCC1)c1ccc2c(c1)N(Cc1ccccc1Cl)C(=O)c1ccccc1S2,inactive: 99%
15,O=c1cc2[nH][nH]c(=S)n2c(=O)[nH]1,inactive: 61%
16,COc1ccc(CCNC(=O)Cn2cc(S(=O)(=O)Cc3ccc(F)cc3)c3ccccc32)cc1OC,inactive: 71%
17,CCOc1ccccc1NC(=O)C1CCCN1S(=O)(=O)c1ccc2nc(-c3ccccc3)[nH]c2c1 (stereo not drawn),inactive: 50%
18,CCOc1ccc(C(=O)c2oc3ccccc3c2NC(=O)c2cc(-c3ccc(C)cc3)on2)cc1,inactive: 95%
19,O=C(CN1C(=O)CSC1=O)N1CCCCC1,inactive: 78%
20,Cc1ccc(-c2cc(C(F)(F)F)n3ncc(-c4ccccc4)c3n2)cc1,inactive: 57%

row,Compound,survival
1,S=c1sc2ccccc2n1CN1CCOCC1,inactive: 78%
2,Cn1nnnc1SCCCNCc1cccc(OCc2ccccc2)c1,inactive: 85%
3,O=CN1CCN(C(=O)c2ccc(F)cc2)CC1,inactive: 78%
4,Cc1c(C(=O)OCc2ccccc2)[nH]c2c1C(=O)CC(c1ccc(Cl)cc1)C2 (stereo not drawn),inactive: 98%
5,O=C(NCc1ccc(Cl)cc1)NC1COc2ccccc2C1 (stereo not drawn),inactive: 92%
6,CCOc1ccc(S(=O)(=O)Nc2cccc(-c3ccc(N4CCC(C)CC4)nn3)c2)cc1,inactive: 86%
7,O=C(NCc1ccco1)c1ccc(Cn2c(SCc3ccccc3F)nc3cccnc32)cc1,inactive: 102%
8,CCOc1cc(S(=O)(=O)N(C)C2CCCCC2)c(OCC)cc1-n1cnnn1,inactive: 99%
9,O=C(CSc1ncccc1C(=O)Oc1ccccc1Cl)Nc1ccccc1Cl,inactive: 89%
10,CN(C)c1ccc(CNC(=O)C2COc3ccccc3C2)cc1 (stereo not drawn),active: 32%
11,CN1C(=O)c2ccccc2Sc2ccc(NC(=O)c3ccc(C(F)(F)F)cc3)cc21,inactive: 96%
12,N#Cc1ccccc1NS(=O)(=O)c1ccc(N2CCCCS2(=O)=O)cc1,inactive: 95%
13,CCCc1nn2c(=O)cc(COC(=O)c3ccc(NC(=O)COc4ccccc4)cc3)nc2s1,inactive: 92%
14,CN1CCN(CC(=O)N(c2ccccc2)c2ccc(O)cc2)CC1,inactive: 93%
15,O=C1NCCN1C(=O)NC1CCCCC1,inactive: 81%
16,COc1ccc(CNC(=O)CCc2c(C)c3cc4c(C)coc4c(C)c3oc2=O)cc1OC,inactive: 57%
17,Cc1ccc(S(=O)(=O)CC(=O)N2CCN(c3nc4c(F)cccc4s3)CC2)cc1,active: -5%
18,COc1cccc(CN2c3ccccc3-c3nc(SCC(=O)Nc4ccccc4Cl)ncc3S2(=O)=O)c1,inactive: 60%
